# Laboratory results from PubChem BioAssay AID1477 (National Center for Advancing Translational Sciences (NCATS), 2009).
# Among all 230,000 compounds or so, fewer than 10 were called active. This list was built around the results that the source calls inconclusive (neither active nor inactive); the mix of calls is not that of the screen. The call rests on the fitted dose curve; in most records, active means well fitted curve in the direction sought with a large enough effect; inconclusive means small, poorly fitted or top-dose-only effect, or effect the other way, or another doubt; inactive means no such curve, though single readings can be large or run the other way. Potencies of inconclusive entries are left out as doubtful fits.
# Molecular target: Runt-related transcription factor 1 (Homo sapiens) + Core-binding factor subunit beta (Homo sapiens) (UniProt Q01196+Q13951)
# Chain of UniProt Q01196 (Q01196 whole entry, looked up): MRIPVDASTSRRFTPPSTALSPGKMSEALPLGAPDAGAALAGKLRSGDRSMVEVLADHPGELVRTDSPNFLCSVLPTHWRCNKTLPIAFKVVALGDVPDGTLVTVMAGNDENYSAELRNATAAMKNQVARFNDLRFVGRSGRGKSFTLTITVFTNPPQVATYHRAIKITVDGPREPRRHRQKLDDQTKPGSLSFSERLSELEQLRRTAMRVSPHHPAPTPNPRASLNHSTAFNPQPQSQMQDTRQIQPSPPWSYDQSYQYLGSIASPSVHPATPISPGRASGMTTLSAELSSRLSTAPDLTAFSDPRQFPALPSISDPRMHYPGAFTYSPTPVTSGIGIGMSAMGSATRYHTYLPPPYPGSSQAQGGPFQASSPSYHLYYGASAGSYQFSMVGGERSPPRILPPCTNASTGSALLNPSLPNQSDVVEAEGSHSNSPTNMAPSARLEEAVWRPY
# Chain of UniProt Q01196 (Q13951 whole entry, looked up): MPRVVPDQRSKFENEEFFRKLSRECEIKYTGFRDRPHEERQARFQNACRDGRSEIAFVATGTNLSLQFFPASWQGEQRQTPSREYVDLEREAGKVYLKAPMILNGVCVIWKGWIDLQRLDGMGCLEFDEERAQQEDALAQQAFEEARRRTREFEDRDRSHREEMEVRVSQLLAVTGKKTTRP
# Assay: qHTS Assay for Compounds Blocking the Interaction Between CBF-beta and RUNX1 for the Treatment of Acute Myeloid Leukemia; on activity, negative = inhibition: % of control where 0% means no effect
# Settings: AlphaScreen CBFb-His/RUNX1-biotin binding, biochemical; activity, negative = inhibition: at 59.8 µM (top of the series) unless noted
# From the text: NIH Chemical Genomics Center [NCGC]
# NIH Molecular Libraries Probe Production centers Network [MLPCN]
# Assay Submitter (PI): Paul Liu
# Core Binding Factor (CBF) abnormalities are associated with 20-25% of all acute myeloid leukemias (AML), of which 5-10% are further sub classified as acute myelomonocytic leukemia with eosinophilia, also known as M4Eo in the FAB classification scheme. This subtype of leukemia is usually associated with chromosome 16 inversion (p13:q22). Chromosome 16 inversion results in formation of the fusion oncogene CBFB-MYH11, which encodes the fusion protein CBF-beta-SMMHC.
# It has been hypothesized that the interference of CBF-beta and RUNX1 binding could have therapeutic implications for patients with CBF mediated leukemias. We developed a CBF-beta and RUNX1 binding assay in AlphaScreenTM format and optimized it for high throughput screening to search for inhibitors. The goal of this project is to screen MLPCN's compound collection (MLSMR) for identifying the inhibitors of the interaction between CBF-beta and RUNX1 proteins as research probes. If these probes work well in the animal models, the ultimate goal of this project is to development a new drug treatment for this disease.
# This assay can not be used to assess how apparent inhibitors interfere with protein binding, and whether inhibitors specifically bind to either protein. Disruption of this protein-protein interaction, through any mechanism, is the intended target activity.
# NCGC Assay Protocol Summary:
# Step, Parameter, Description
# (1) Reagent, 3 uL CBFb-His/RUNX1-biotin mix incubated together for 20 minutes at room temperature (30 nM each)
# (2) Compound or control, 23 nL compound stock solution
# (3) Incubation, 15 minutes at Room temperature
# (4) Reagent, 1 uL 50 ng each of beads (Nickel beads and streptavidin beads)
# (5) Incubation, 90 minutes at Room temperature
# (6) Detection, Excitation=365 nm Emission=440 nm, Envision reader in AlphaScreenTM mode
# Keywords: MLSMR, MLPCN, NIH Roadmap, qHTS, NCGC, Core binding factor, CBF, CBF-beta, Acute myeloid leukemia
Compound,"activity, negative = inhibition",Potency
O=C(NC1=NCCS1)C1COc2ccccc2O1 (stereo unspecified),inactive: 3.85%,–
C[C@H](NC(=O)Cc1cccc2ccccc12)C(=O)N1CCCN(C)CC1,–,"inconclusive [activator, full curve, poor fit]"
CN(CC(=O)O)Cc1nc2ccccc2[nH]1,–,"inconclusive [inhibitor, single point]"
COC(=O)C1=Nc2ccccc2/C1=C\c1c(O)n(-c2cc(OC)ccc2OC)c(=O)[nH]c1=O,–,"inconclusive [inhibitor, single point]"
O=C1c2ccccc2C(=O)N1CCCc1nc2ccccc2c(=O)n1-c1cccnc1,–,"inconclusive [inhibitor, single point]"
O=C(CSc1nnnn1-c1ccccc1)Nc1ccc(N2CCOCC2)c(Cl)c1,inactive: -4.83%,–
C=C(C)CNC(=S)Nc1sc2c(c1C(=O)OCC)CC(C)(C)OC2,inactive: 8.6%,–
CN(C1CCCCC1)S(=O)(=O)c1ccc2[nH]c(=O)oc2c1,inactive: -8.36%,–
CCCn1nc(NC(=O)c2cccs2)c2cc3cc(OC)ccc3nc21,–,"inconclusive [activator, partial curve]"
C[N+](C)(C)CCCNC(=O)c1ccc(/C=N/O)nc1,–,"inconclusive [inhibitor, partial curve]"
Cc1ccccc1N1CCN(C(=S)c2ccc(-c3ccc([N+](=O)[O-])cc3)o2)CC1,–,"inconclusive [inhibitor, single point]"
Cn1c(NC(=O)COc2ccccc2)cc(=O)n(C)c1=O,inactive: 6.11%,–
CCCSc1cc(NCCOC(C)=O)c([N+](=O)[O-])c2nonc12,inactive: -0.691%,–
COc1ccc(Cl)cc1Nc1nc(-c2sc(NC(=O)C(C)(C)C)nc2C)cs1,–,"inconclusive [inhibitor, single point]"
O=C(COc1ccc2oc(-c3ccccc3)cc(=O)c2c1)Nc1ccccc1,inactive: 3.14%,–
Cc1ccccc1C1C(C#N)=C2N=C(N)c3c(sc4c3CCCCC4)N2C2=C1C(=O)CC(C)(C)C2 (stereo unspecified),–,"inconclusive [inhibitor, partial curve]"
COc1ccc(-n2c3c(c(=O)[nH]c2=O)C(NS(=O)(=O)c2ccc(Cl)cc2)(C(F)(F)F)C(=O)N3)cc1 (stereo unspecified),inactive: 11.7%,–
CCOC(=O)c1c(NC(=O)c2ccccc2Br)sc2c1CCc1ccccc1-2,–,"inconclusive [activator, partial curve]"
Cc1nc(NC2CCCCC2)c2nc(-c3ccccc3)n(CCCN3CCOCC3)c2n1,inactive: 0.121%,–
CCCc1ccc(OCc2ccc(C(=O)N3CCN(c4ccccn4)CC3)o2)c(OC)c1,inactive: -2.79%,–
Cc1ccsc1/C=N/N1CCN(c2ccccc2)CC1,–,"inconclusive [inhibitor, partial curve]"
Cc1ccc(S(=O)(=O)c2cc3c(=O)n4ccccc4nc3n(Cc3ccco3)c2=N)cc1C,inactive: 0.565%,–
O=C(Nn1cc(C(=O)Nc2ccccc2F)c2ccccc2c1=O)c1cnccn1,inactive: -26.3%,–
CC1CCc2cccc3c2N1c1cc(C#N)c(C#N)cc1O3 (stereo unspecified),–,"inconclusive [activator, partial curve]"

Compound,"activity, negative = inhibition",Potency
CCCCCCOc1ccccc1C(N)=O,–,"inconclusive [activator, partial curve]"
c1ccc2c(-c3c[nH]c4ccccc34)c3ccccc3nc2c1,inactive: 20.3%,–
CCOC(=O)Cc1cnc(NC(=O)Cn2nnc(-c3ccc(OCC)cc3)n2)s1,inactive: 2.12%,–
COc1cc(CNc2ccc(N3CCOCC3)cc2)cc(Br)c1OC,–,"inconclusive [inhibitor, single point]"
CN1C[C@@H](CO)C=C2c3cccc4[nH]cc(c34)CC21 (stereo partly specified),–,inactive
COc1cccc(OCCn2cc(C(=O)c3ccco3)c3ccccc32)c1,inactive: 11.5%,–
Cc1cc(/C=C2\C(=O)NC(=O)N(Cc3ccccc3Cl)C2=O)c(C)n1-c1ccc(C(=O)O)cc1,–,"inconclusive [inhibitor, partial curve]"
N#Cc1ccc(C23CC4(C2)[C@H](CN(P(=O)(c2ccccc2)c2ccccc2)[C@@H]4c2ccccc2)C3c2ccc(Cl)nc2)cc1 (stereo partly specified),–,"inconclusive [inhibitor, single point]"
Cc1cc(/C=N/N2CCN(C)CC2)c(C)n1-c1ccccc1F,–,"inconclusive [activator, single point]"
COc1ccc(C(=O)NCc2ccc3c(c2)cc(C)n3C)cc1OC,–,"inconclusive [inhibitor, partial curve]"
NC[C@H](O)c1ccc(O)c(O)c1,–,"inconclusive [inhibitor, full curve, poor fit]"
O=C(/C=C1\NCC2c3ccccc3CCN2C1=O)c1ccccc1 (stereo unspecified),inactive: -1.91%,–
Clc1ccccc1-c1nnn(Cc2ccc(-c3nn[nH]n3)cc2)n1,–,"inconclusive [inhibitor, single point]"
N#CCC(=O)Nc1ccc(C(=O)OCC(=O)Nc2ccccc2Sc2ccccc2)cc1,inactive: 4.34%,–
O=C(NCc1cccnc1)c1ccc(S(=O)(=O)N2CCCCCC2)cc1,inactive: -0.117%,–
CC(C)C1NC2(C(=O)c3ccccc3C2=O)C2C(=O)N(c3ccc(F)cc3)C(=O)C12 (stereo unspecified),inactive: 4.25%,–
O=C(COC(=O)C1(c2ccc(F)cc2)CCCC1)N1CCc2ccccc21,–,"inconclusive [activator, single point]"
S=C(Nc1ccccc1Cl)N(Cc1ccccc1)Cc1ccccn1,–,"inconclusive [activator, single point]"
CC(=O)Oc1ccc(C(=O)Nc2cccc(C(=O)c3cccc(NC(=O)c4ccc(OC(C)=O)cc4)c3)c2)cc1,–,"inconclusive [activator, partial curve]"
O=C1C(Cl)=C(NC2CCCCC2)C(=O)N1Cc1ccccc1,–,"inconclusive [activator, partial curve]"
O=C(O)c1ccccc1C(=O)Nc1cccc([N+](=O)[O-])c1,inactive: -1.07%,–
O=C(COC(=O)c1ccccc1NC(=O)c1ccccc1)c1cccc([N+](=O)[O-])c1,inactive: -8.93%,–
COc1cccc(OC)c1C(=O)NC(=S)Nc1ccc2c(c1)OCCO2,inactive: -7.68%,–
Nc1nnc(SCc2nc3scc(-c4ccccc4)c3c(=O)[nH]2)s1,–,"inconclusive [inhibitor, single point]"

Compound,"activity, negative = inhibition",Potency
COc1ccc(C[C@H]2CN3C(=NC[C@@H]3Cc3ccc(O)cc3)N2C[C@H](C)NC(=O)c2ccc(C)c(Br)c2)cc1,–,"inconclusive [inhibitor, single point]"
CCOc1ccc(NC(=S)NCc2nc3ccccc3[nH]2)cc1,inactive: -0.606%,–
C=CCN1C(=O)/C(=c2\sc3nc(=O)c(Cc4ccccc4)nn3c2=O)c2ccccc21,inactive: -17.3%,–
CCCCN1C(=O)/C(=C2\SC(N3CCCCC3)=NC2=O)c2ccccc21,–,"inconclusive [inhibitor, single point]"
O=C(Nc1ccccc1-c1nc2ccccc2s1)c1ccco1,–,"inconclusive [activator, partial curve]"
O=C(CSc1ccc2nnc(-c3ccccn3)n2n1)Nc1ccc2c(c1)OCO2,–,"inconclusive [inhibitor, partial curve]"
O=C(c1cccn2c(=O)c3ccccc3nc12)N1CCN(Cc2ccc3c(c2)OCO3)CC1,inactive: 6.3%,–
CCN1CCCC1CN(Cc1cc2ccc(C)cc2[nH]c1=O)C(=S)Nc1ccc(F)cc1 (stereo unspecified),inactive: -0.415%,–
O=S(=O)(Nc1cc(O)cc2cccnc12)c1ccc(Br)s1,–,"inconclusive [inhibitor, single point]"
Cc1sc2c(c1C)C(O)=C(C(=O)Nc1ccccc1)S(=O)(=O)N2C,–,"inconclusive [inhibitor, single point]"
COC(=O)c1c(C)oc2ccc(OC(=O)c3cccs3)cc12,–,"inconclusive [activator, partial curve]"
COc1ccc(-c2ccc(/C=C3/C(=N)N4C=CSC4=NC3=O)o2)c([N+](=O)[O-])c1,inactive: -20.2%,–
COc1ccccc1OCCOc1ccc(C(=O)c2ccccc2)cc1,–,"inconclusive [activator, partial curve]"
CCOc1ccc(NC(C(=O)Nc2cccc(C(C)=O)c2)c2ccccc2)cc1 (stereo unspecified),–,"inconclusive [inhibitor, single point]"
COc1ccc(S(=O)(=O)NCCSCc2ccco2)cc1,–,"inconclusive [inhibitor, single point]"
COc1ccc(C2/C=C\CN(CC(C)C)C(C)C(=O)N2Cc2ccc(F)cc2)cc1 (stereo unspecified),inactive: 19.6%,–
Clc1ccc(/C=N/NC(=Nc2ccccc2)c2ccccn2)c(Cl)c1,–,"inconclusive [inhibitor, single point]"
N#C/C(=C\c1ccc([N+](=O)[O-])o1)C(=O)Nc1ccc(F)cc1,–,"inconclusive [inhibitor, single point]"
COc1ccccc1-c1cc(C(F)(F)F)nc(NCc2cccs2)n1,–,"inconclusive [activator, partial curve]"
CCc1nnc(NC(=O)CSc2nc(-c3ccccc3)cc(-c3ccc(OC)cc3)c2C#N)s1,–,"inconclusive [activator, partial curve, poor fit]"
CCC(Oc1ccc2c(=O)c(-c3ccccc3OC)coc2c1)C(=O)OCc1ccccc1 (stereo unspecified),–,"inconclusive [activator, partial curve]"
COc1nc(-c2ccccc2)ccc1-c1noc(COc2ccccc2)n1,–,"inconclusive [activator, partial curve]"
Nc1cc(-c2ccc(Br)cc2)nn1S(=O)(=O)c1cccc2nsnc12,–,"inconclusive [inhibitor, single point]"
